Test results reported in the supplement of paper PMC8728848.
The other results are listed elsewhere or left out.

Tests used:
Assay in all cases: glycan array binding signal (z-score within array); higher = stronger binding
Details in all cases: glycan notation: IUPAC condensed, linker removed
[1] = molecular target: Neu5Ac(a2-3)Gal(b1-4)[Fuc(a1-3)]GlcNAc(b1-6)[Gal(b1-3)]GalNAc
How it was run: (§1)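 Glycan array data came from 3228 arrays in the Consortium for Functional Glycomics database, and only arrays with an available protein sequence were kept. Glycan names were put into IUPAC-condensed notation, and columns mapping to the same glycan were averaged. The binding signal is a within-array Z-score, averaged across arrays of one protein sequence run at different concentrations or buffers and across linkers. A negative Z-score can be read as non-binding.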

[2] = molecular target: Neu5Ac(a2-3)Gal(b1-4)[Fuc(a1-3)]GlcNAc6S
How it was run: as §1

[3] = molecular target: Neu5Ac(a2-3)Gal6S(b1-4)GlcNAc
How it was run: as §1

[4] = molecular target: Neu5Ac(a2-3)Gal6S(b1-4)[Fuc(a1-3)]GlcNAc
How it was run: as §1

Neu5Ac(a2-3)GalNAc = molecular target: Neu5Ac(a2-3)GalNAc
How it was run: as §1

[5] = molecular target: Neu5Ac(a2-3)GalNAc(b1-4)GlcNAc
How it was run: as §1

[6] = molecular target: Neu5Ac(a2-3)[GalNAc(b1-4)]Gal(b1-4)Glc
How it was run: as §1

[7] = molecular target: Neu5Ac(a2-3)[GalNAc(b1-4)]Gal(b1-4)GlcNAc
How it was run: as §1

[8] = molecular target: Neu5Ac(a2-3)[GalNAc(b1-4)]Gal(b1-4)GlcNAc(b1-3)GalNAc
How it was run: as §1

[9] = molecular target: Neu5Ac(a2-3)[Neu5Ac(a2-6)]GalNAc
How it was run: as §1

Neu5Ac(a2-6)Gal = molecular target: Neu5Ac(a2-6)Gal
How it was run: as §1

[10] = molecular target: Neu5Ac(a2-6)Gal(b1-3)GlcNAc(b1-3)[Gal(b1-4)GlcNAc(b1-6)]Gal(b1-4)Glc
How it was run: as §1

Neu5Ac(a2-6)Gal(b1-4)Glc = molecular target: Neu5Ac(a2-6)Gal(b1-4)Glc
How it was run: as §1

[11] = molecular target: Neu5Ac(a2-6)Gal(b1-4)GlcNAc
How it was run: as §1

[12] = molecular target: Neu5Ac(a2-6)Gal(b1-4)GlcNAc(b1-2)Man(a1-3)Man(b1-4)GlcNAc(b1-4)GlcNAc
How it was run: as §1

[13] = molecular target: Neu5Ac(a2-6)Gal(b1-4)GlcNAc(b1-2)Man(a1-3)[Gal(b1-4)GlcNAc(b1-2)Man(a1-6)]Man(b1-4)GlcNAc(b1-4)GlcNAc
How it was run: as §1

[14] = molecular target: Neu5Ac(a2-6)Gal(b1-4)GlcNAc(b1-2)Man(a1-3)[GlcNAc(b1-2)Man(a1-6)]Man(b1-4)GlcNAc(b1-4)GlcNAc
How it was run: as §1

[15] = molecular target: Neu5Ac(a2-6)Gal(b1-4)GlcNAc(b1-2)Man(a1-3)[GlcNAc(b1-2)Man(b1-4)GlcNAc(b1-2)Man(a1-6)]Man(b1-4)GlcNAc(b1-4)GlcNAc
How it was run: as §1

[16] = molecular target: Neu5Ac(a2-6)Gal(b1-4)GlcNAc(b1-2)Man(a1-3)[Man(a1-6)]Man(b1-4)GlcNAc(b1-4)GlcNAc
How it was run: as §1

[17] = molecular target: Neu5Ac(a2-6)Gal(b1-4)GlcNAc(b1-2)Man(a1-3)[Neu5Ac(a2-6)Gal(b1-4)GlcNAc(b1-2)Man(a1-6)]Man(b1-4)GlcNAc(b1-4)GlcNAc
How it was run: as §1

[18] = molecular target: Neu5Ac(a2-6)Gal(b1-4)GlcNAc(b1-2)Man(a1-3)[Neu5Ac(a2-6)Gal(b1-4)GlcNAc(b1-2)Man(a1-6)]Man(b1-4)GlcNAc(b1-4)[Fuc(a1-6)]GlcNAc
How it was run: as §1

[19] = molecular target: Neu5Ac(a2-6)Gal(b1-4)GlcNAc(b1-2)Man(a1-6)Man(b1-4)GlcNAc(b1-4)GlcNAc
How it was run: as §1

[20] = molecular target: Neu5Ac(a2-6)Gal(b1-4)GlcNAc(b1-2)Man(a1-6)[Gal(b1-4)GlcNAc(b1-2)Man(a1-3)]Man(b1-4)GlcNAc(b1-4)GlcNAc
How it was run: as §1

[21] = molecular target: Neu5Ac(a2-6)Gal(b1-4)GlcNAc(b1-2)Man(a1-6)[GlcNAc(b1-2)Man(a1-3)]Man(b1-4)GlcNAc(b1-4)GlcNAc
How it was run: as §1

[22] = molecular target: Neu5Ac(a2-6)Gal(b1-4)GlcNAc(b1-2)Man(a1-6)[Man(a1-3)]Man(b1-4)GlcNAc(b1-4)GlcNAc
How it was run: as §1

[23] = molecular target: Neu5Ac(a2-6)Gal(b1-4)GlcNAc(b1-3)Gal(b1-3)GlcNAc
How it was run: as §1

[24] = molecular target: Neu5Ac(a2-6)Gal(b1-4)GlcNAc(b1-3)Gal(b1-4)GlcNAc
How it was run: as §1

[25] = molecular target: Neu5Ac(a2-6)Gal(b1-4)GlcNAc(b1-3)Gal(b1-4)GlcNAc(b1-3)Gal(b1-4)GlcNAc
How it was run: as §1

[26] = molecular target: Neu5Ac(a2-6)Gal(b1-4)GlcNAc(b1-3)Gal(b1-4)[Fuc(a1-3)]GlcNAc(b1-3)Gal(b1-4)[Fuc(a1-3)]GlcNAc
How it was run: as §1

[27] = molecular target: Neu5Ac(a2-6)Gal(b1-4)GlcNAc(b1-3)GalNAc
How it was run: as §1

[28] = molecular target: Neu5Ac(a2-6)Gal(b1-4)GlcNAc(b1-3)[Neu5Ac(a2-6)Gal(b1-4)GlcNAc(b1-6)]GalNAc
How it was run: as §1

B1: StcE (Escherichia coli), O82882.2 (protein)
chain: ADNNSAIYFNTSQPINDLQGSLAAEVKFAQSQILPAHPKEGDSQPHLTSLRKSLLLVRPVKADDKTPVQVEARDDNNKILGTLTLYPPSSLPDTIYHLDGVPEGGIDFTPHNGTKKIINTVAEVNKLSDASGSSIHSHLTNNALVEIHTANGRWVRDIYLPQGPDLEGKMVRFVSSAGYSSTVFYGDRKVTLSVGNTLLFKYVNGQWFRSGELENNRITYAQHIWSAELPAHWIVPGLNLVIKQGNLSGRLNDIKIGAPGELLLHTIDIGMLTTPRDRFDFAKDKEAHREYFQTIPVSRMIVNNYAPLHLKEVMLPTGELLTDMDPGNGGWHSGTMRQRIGKELVSHGIDNANYGLNSTAGLGENSHPYVVAQLAAHNSRGNYANGIQVHGGSGGGGIVTLDSTLGNEFSHEVGHNYGLGHYVDGFKGSVHRSAENNNSTWGWDGDKKRFIPNFYPSQTNEKSCLNNQCQEPFDGHKFGFDAMAGGSPFSAANRFTMYTPNSSAIIQRFFENKAVFDSRSSTGFSKWNADTQEMEPYEHTIDRAEQITASVNELSESKMAELMAEYAVVKVHMWNGNWTRNIYIPTASADNRGSILTINHEAGYNSYLFINGDEKVVSQGYKKSFVSDGQFWKERDVVDTREARKPEQFGVPVTTLVGYYDPEGTLSSYIYPAMYGAYGFTYSDDSQNLSDNDCQLQVDTKEGQLRFRLANHRANNTVMNKFHINVPTESQPTQATLVCNNKILDTKSLTPAPEGLTYTVNGQALPAKENEGCIVSVNSGKRYCLPVGQRSGYSLPDWIVGQEVYVDSGAKAKVLLSDWDNLSYNRIGEFVGNVNPADMKKVKAWNGQYLDFSKPRSMRVVYK
glycan array binding signal (z-score) [1]: -0.112 | glycan array binding signal (z-score) [2]: 2.84 | glycan array binding signal (z-score) [3]: -0.098 | glycan array binding signal (z-score) [4]: -0.148 | glycan array binding signal (z-score) (Neu5Ac(a2-3)GalNAc): -0.499 | glycan array binding signal (z-score) [5]: -0.153 | glycan array binding signal (z-score) [6]: -0.133 | glycan array binding signal (z-score) [7]: -0.496 | glycan array binding signal (z-score) [8]: -0.116 | glycan array binding signal (z-score) [9]: -0.349 | glycan array binding signal (z-score) (Neu5Ac(a2-6)Gal): 1.99 | glycan array binding signal (z-score) [10]: -0.132 | glycan array binding signal (z-score) (Neu5Ac(a2-6)Gal(b1-4)Glc): -0.084 | glycan array binding signal (z-score) [11]: -0.194 | glycan array binding signal (z-score) [12]: -0.095 | glycan array binding signal (z-score) [13]: -0.037 | glycan array binding signal (z-score) [14]: -0.148 | glycan array binding signal (z-score) [15]: -0.098 | glycan array binding signal (z-score) [16]: -0.152 | glycan array binding signal (z-score) [17]: -0.132 | glycan array binding signal (z-score) [18]: -0.176 | glycan array binding signal (z-score) [19]: -0.148 | glycan array binding signal (z-score) [20]: -0.133 | glycan array binding signal (z-score) [21]: -0.167 | glycan array binding signal (z-score) [22]: -0.149 | glycan array binding signal (z-score) [23]: -0.146 | glycan array binding signal (z-score) [24]: -0.16 | glycan array binding signal (z-score) [25]: -0.152 | glycan array binding signal (z-score) [26]: 0.622 | glycan array binding signal (z-score) [27]: 2.78 | glycan array binding signal (z-score) [28]: 0.038
